Target: TLR5 of the cell-based reporter assays
Experiment: cell-based or functional assay

B1: CBLB502 mutant ME124 (ligand)
chain: MSGLRINSAKDDAAGQAIANRFTSNIKGLTQASRNANDGISIAQTTEGALNEINNNLQRVRELSVQATNGTNSDSDLKSIQDEIQQRLEEIDAVSAATQFNGVKVLSQDNQMKIQVGANDGETITIDLQKIDVKSLGLDGFNVNSPGSTANPLASIDSALSKVDAVRSSLGAIQNRFDSAITNLGNTVTNLNSARSRIEDADYATEVSNMSKAQILQQAGTSVLAQANQVPQNVLSLLVPRGSHHHHHHG
B1 was tested, and the “Signaling EC50 Normalized by CBLB502” value was 0.9 fold vs CBLB502.

B2: CBLB502 mutant ME132 (ligand)
chain: MSGLRINSAKDDAAGQAIANRFTSNIKGLTQASRNANDGISIAQTTEGALNEINNNLQRVRELSVQATNGTNSDSDLKSIQDEIQQRLEEIDRVSNQTQFAAVKVLSQDNQMKIQVGANDGETITIDLQKIDVKSLGLDGFNVNSPGSTANPLASIDSALSKVDAVRSSLGAIQNRFDSAITNLGNTVTNLNSARSRIEDADYATEVSNMSKAQILQQAGTSVLAQANQVPQNVLSLLVPRGSHHHHHHG
For B2, the “Signaling EC50 Normalized by CBLB502” value was 0.94 fold vs CBLB502.

B3: CBLB502 mutant ME142 (ligand)
chain: MSGLRINSAKDDAAGQAIANRFTSNIKGLTQASRNANDGISIAQTTEGALNEINNNLQRVRELSVQATNGTNSDSDLKSIQDEIQQRLEEIDRVSNQTQFNGVKVLSQDNAMAIQVGANDGETITIDLQKIDVKSLGLDGFNVNSPGSTANPLASIDSALSKVDAVRSSLGAIQNRFDSAITNLGNTVTNLNSARSRIEDADYATEVSNMSKAQILQQAGTSVLAQANQVPQNVLSLLVPRGSHHHHHHG
B3 was tested, and the “Signaling EC50 Normalized by CBLB502” value was 0.3 fold vs CBLB502.

B4: CBLB502 mutant ME150 (ligand)
chain: MSGLRINSAKDDAAGQAIANRFTSNIKGLTQASRNANDGISIAQTTEGALNEINNNLQRVRELSVQATNGTNSDSDLKSIQDEIQQRLEEIDRVSNQTQFNGVKVLSQDNQMKIQVGASAAETITIDLQKIDVKSLGLDGFNVNSPGSTANPLASIDSALSKVDAVRSSLGAIQNRFDSAITNLGNTVTNLNSARSRIEDADYATEVSNMSKAQILQQAGTSVLAQANQVPQNVLSLLVPRGSHHHHHHG
With B4 the “Signaling EC50 Normalized by CBLB502” value was 0.5 fold vs CBLB502.

B5: CBLB502 mutant ME468 (ligand)
chain: MSGLRINSAKDDAAGQAIANRFTSNIKGLTQASRNANDGISIAQTTEGALNEINNNLQRVRELSVQATNGTNSDSDLKSIQDEIQQRLEEIDRVSNQTQFNGVKVLSQDNQMKIQVGANDGETITIDLQKIDVKSLGLDGFNVNSPGSTANPLASIDSALSKVDAVRSSLGAIQNRFDSAITNLGNTVTNLNSARSRIEDADAGAEVANMSKAQILQQAGTSVLAQANQVPQNVLSLLVPRGSHHHHHHG
With B5 the “Signaling EC50 Normalized by CBLB502” value was 0.7 fold vs CBLB502.

B6: CBLB502 mutant ME104N (ligand)
chain: MSGLRINSAKDDAAGQAIANRFTSNIKGLTQASRNANDGISIAQTTEGALNEINNNLQRVRELSVQATAGANADAALKAIQAEIQQRLEEIDRVSNQTQFNGVKVLSQDNQMKIQVGANDGETITIDLQKIDVKSLGLDGFNVNSPGSTANPLASIDSALSKVDAVRSSLGAIQNRFDSAITNLGNTVTNLNSARSRIEDADYATEVSNMSKAQILQQAGTSVLAQANQVPQNVLSLLVPRGSHHHHHHG
For B6, the “Signaling EC50 Normalized by CBLB502” value was 0.9 fold vs CBLB502.

B7: CBLB502-S33MX (ligand)
chain: MSGLRINSAKDDAAGQAIANRFTSNIKGLTQASRNAADGISIAQTTEGALNEINNNLQRVRELSVQATAGANADAALKAIQAEIQQRLEEIDRVSQQTQAAAVKVLSQDNAMAIQVGANDGAAITIDLQKIDVKSLGLDGFNVNSPGSTANPLASIDSALSKVDAVRSSLGAIQNRFDSAITNLGNTVTNLNSARSRIEDADYATEVSQMSKAQILQQAGTSVLAQANQVPQNVLSLLVPRGSHHHHHHG
B7 was tested, and the “Signaling EC50 Normalized by CBLB502” value was 1.3 fold vs CBLB502.
